Test results reported in PMC4336329 (PLoS ONE, 2015).
About 14,000 (4.5%) of roughly 310,000 compounds showed an effect of 50% or more. The effect is printed as a negative number. Some of the results follow.

The compounds below were run against human ether-à-go-go-related gene (hERG) potassium channel (human, UniProt Q12809) (assay: primary screen, population patch clamp on CHO cells stably expressing hERG).
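Note: peak tail current of the secondary pulse compared with the same well before compound.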

human ether-à-go-go-related gene (hERG) potassium channel, sequence (Q12809 whole entry, looked up): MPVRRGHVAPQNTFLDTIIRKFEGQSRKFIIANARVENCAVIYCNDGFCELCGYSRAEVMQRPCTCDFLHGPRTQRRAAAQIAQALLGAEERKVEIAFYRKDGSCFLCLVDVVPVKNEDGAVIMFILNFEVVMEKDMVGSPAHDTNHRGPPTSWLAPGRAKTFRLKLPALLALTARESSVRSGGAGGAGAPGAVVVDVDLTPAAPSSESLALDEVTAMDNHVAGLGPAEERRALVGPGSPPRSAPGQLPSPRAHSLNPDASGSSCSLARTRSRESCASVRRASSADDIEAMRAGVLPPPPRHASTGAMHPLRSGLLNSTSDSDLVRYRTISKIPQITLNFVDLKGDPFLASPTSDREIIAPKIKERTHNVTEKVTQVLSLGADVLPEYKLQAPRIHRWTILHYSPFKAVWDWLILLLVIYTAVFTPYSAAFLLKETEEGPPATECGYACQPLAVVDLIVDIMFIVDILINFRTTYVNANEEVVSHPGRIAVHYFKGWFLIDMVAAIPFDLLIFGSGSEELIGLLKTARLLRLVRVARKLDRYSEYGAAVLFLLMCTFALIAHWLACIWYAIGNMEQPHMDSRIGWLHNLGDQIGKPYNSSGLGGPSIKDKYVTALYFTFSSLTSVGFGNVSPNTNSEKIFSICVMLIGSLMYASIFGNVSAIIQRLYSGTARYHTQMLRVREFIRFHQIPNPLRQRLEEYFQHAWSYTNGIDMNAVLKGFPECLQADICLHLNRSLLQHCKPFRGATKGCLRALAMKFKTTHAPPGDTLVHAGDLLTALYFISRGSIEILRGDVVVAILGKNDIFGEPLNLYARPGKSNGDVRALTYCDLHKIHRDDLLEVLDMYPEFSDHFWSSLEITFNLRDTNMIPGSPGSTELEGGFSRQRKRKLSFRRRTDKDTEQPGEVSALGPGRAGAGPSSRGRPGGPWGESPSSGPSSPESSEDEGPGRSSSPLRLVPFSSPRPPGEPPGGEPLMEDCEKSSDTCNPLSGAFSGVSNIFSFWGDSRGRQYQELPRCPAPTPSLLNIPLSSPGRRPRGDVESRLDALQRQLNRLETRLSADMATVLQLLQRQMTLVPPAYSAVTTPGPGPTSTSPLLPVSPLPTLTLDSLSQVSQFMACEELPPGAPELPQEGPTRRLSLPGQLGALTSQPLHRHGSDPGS

Row | SMILES | hERG current change (%, negative = inhibition) at 10uM
1 | COc1ccc([N+](=O)[O-])cc1NC(=O)C(C)OC(=O)/C=C/c1ccco1 (stereo not shown) | -8.55%
2 | O=C1NC(Cc2c[nH]c3ccccc23)C(=O)N1CCOc1ccc(F)cc1 (stereo not shown) | -16.8%
3 | Cc1cc(C)c(C)c(OCCCCn2cnc3ccccc3c2=O)c1 | -3.01%
4 | Cc1ccc2c(Cl)cc(Cl)c(OCC(=O)Nc3cc(S(=O)(=O)N(C)C)ccc3C)c2n1 | 10.6%
5 | CC1(C)C(=O)Nc2ccccc2N1C(=O)COc1ncnc2c(Cl)cc(Cl)cc12 | -9.51%
6 | COc1nc(N/N=C/c2cc3c(cc2Br)OCO3)nc(N2CCOCC2)n1 | -27.8%
7 | C=CCn1c(SCC(=O)c2[nH]c(C)c(C(=O)OCC)c2C)nc2scc(-c3ccc(OC)c(OC)c3)c2c1=O | 30%
8 | Cc1ccc(C(=O)Nc2sc3c(c2C(=O)O)CCCC3)o1 | 24.8%
9 | COc1ccccc1C(=O)NCCC(=O)Nc1ccc(OC(F)(F)F)cc1 | -3.85%
10 | Cc1ccc2nc(/C(C#N)=C\c3ccc(N4CCOCC4)o3)[nH]c2c1 | -10.3%
11 | C/C(CC(=O)Nc1ccccn1)=N\NC(=O)c1ccccc1 | 2.22%
12 | CC(C)(C)c1ccc(OCCCC(=O)Nc2ccc(S(N)(=O)=O)cc2)cc1 | -25.8%
13 | COc1ccc(NC(=O)N2CCC(n3cnc4ccccc43)CC2)cc1 | -28.5%
14 | CN(C)C(=O)C1C2NC(=S)N(c3ccc(Cl)cc3)C1(C)Oc1ccc(Cl)cc12 (stereo not shown) | -3.96%
15 | Cc1ccccc1-n1nc(C)c2c(C(=O)NN)cc(-c3ccncc3)nc21 | 38.5%
16 | CC(=O)Nc1ccc(NC(=O)C/C(C)=N/NC(=O)c2cccc3ccccc23)cc1 | 0.867%
17 | COc1cc(OC)c(OC)cc1/C=N/NC(=O)CSc1ccccc1F | 0.803%
18 | O=C(C[n+]1ccc(C(=O)c2ccccc2)cc1)Nc1ccc(C(F)(F)F)cc1.[Cl-] | -11.6%
19 | O=C(COC(=O)c1ccc(Br)o1)NCCNC(=O)COC(=O)c1ccc(Br)o1 | 12%
20 | CCCOc1ccc(C(=O)NCCCn2ccnc2)cc1 | -12.7%
21 | CCOc1ccccc1OCC(=O)Nc1ccc(S(=O)(=O)Nc2nc(C)cc(C)n2)cc1 | -8.26%
22 | COc1cc2c(cc1OC)CN(C(=O)CN1CCN(S(=O)(=O)c3ccccc3)CC1)CC2 | -16.7%

Row | SMILES | hERG current change (%, negative = inhibition) at 10uM
23 | O=C(COC(=O)c1ccc(NS(=O)(=O)c2cccs2)cc1O)NCc1ccccc1 | 4.53%
24 | CCOC(=O)COn1c(=O)c(-c2ccc(OC)c(OC)c2)[n+]([O-])c2ccccc21 | -11.9%
25 | CCCn1c(SCC(=O)N(C)CC(=O)Nc2ccc(Cl)cc2)n[nH]c1=O | -2.98%
26 | CCOC(=O)c1sc2nc(C3CC3)cc(-c3ccc(F)cc3)c2c1N | 10.7%
27 | COC(=O)CCCC1=CC2=C(c3ccccc3)C(=O)C(C)(OC(=O)C3CCCC3)C(=O)C2=CN1CC1CC1 (stereo not shown) | -39.9%
28 | CCC(=S)/C=C1\Sc2ccccc2N1CCCS(=O)(=O)[O-].[Na+] | 4.78%
29 | COc1cccc(N2CC(C(=O)Oc3ccc4ccccc4c3)CC2=O)c1 (stereo not shown) | -7.91%
30 | CC(C)(C(=O)c1ccccc1)/[N+]([O-])=C/c1ccc(F)cc1 | -15.3%
31 | COc1ccc(C2CC(=O)N3CN(Cc4ccco4)CSC3=C2C#N)cc1 (stereo not shown) | 15.7%
32 | CC(C)N(C)Cc1nnnn1CC(=O)N(C)Cc1cccc(Cl)c1 | 9.31%
33 | CCSC1=N/C(=C\c2ccc3c(c2)OCO3)C(=O)S1 | 6.71%
34 | Cc1cc(OC(C)C(=O)NCc2cccnc2)c2c3c(c(=O)oc2c1)CCC3 (stereo not shown) | 17.7%
35 | O=c1cc(CSc2nnc(COc3ccccc3Cl)o2)nc2sccn12 | -43.6%
36 | C/C(=N\NC(=O)C1CC1)c1ccc(C)cc1C | 3.18%
37 | COc1ccc(NC(=S)Nc2cccc3ccccc23)cc1OC | 10.4%
38 | O=C(CSc1nnc2ccccn12)NNC(=O)c1ccc(Cl)cc1 | 7.36%
39 | COc1ccc(NC(=O)c2csc(Cc3ccccc3)n2)cc1 | -10.3%
40 | Cc1ccc(C2CC(C(F)(F)F)n3nc(C(=O)NCCN4CCOCC4)cc3N2)cc1 (stereo not shown) | -6.47%
41 | Cc1cc(C)nc(N2CCC(CNC(=O)CCc3ccccc3)CC2)n1 | 30%
42 | CC(=O)N(Cc1ccccn1)Cc1ccco1 | 4.86%
43 | O=C(Nc1nc2ccc3ccccc3c2s1)c1ccc(N2CCCCC2)c([N+](=O)[O-])c1 | 16.3%
